Assay results: the RNAGym collection of RNA variant scans (doi:10.7554/elife.90254)
Read counts are not given, so values of variants with three or more changes are uncertain.

B1: LINE1-mini (parent)
chain: GGCAGAGCUCAACACAGCGUGGCAAAGUGGCUGUGGCUAGACUGCC

Variants of: B1
Test: self-cleavage, relative activity (ratio to wild type); higher = more cleavage; in vitro, sequencing; the parent is a self-cleaving ribozyme

Variant	self-cleavage
A11U U32G G40A	0
U9G C15G A24C	0.17
G5U G21A C42U	0.13
G1C A4G C10U C13U C18U C37A	0.04
A12C G21A G27U	0.03
A16G C23G G27C G36A	0.08
A6C G17A C23U U28A G30U A39U	0.32
C31G U32A G40A G44A	0.01
C3A C13A U20C A24C G27A	0.01
U28C G35C C37U U38C	0.06
G7A G30A A39U U43C	0.18
G7A C10G A12G A16C	0.02
G1U A12C C46A	0.01
C3U U38G A39U	0.15
A6C G35A C46A	0.36
G5U G7A U9A	0.2
C3G C10A C18A C42U	0.01
G5C C13A C45U	0.04
C3U C8G A16C G19C	0.2
G17C C18U C23U A25U A39G	0.05
A25C G29A C42U	0.39
G7C C13U G29A U38G	0
A4C A25C G29U C31U	0.03
G2U A11U G40C	0.01

Variant	self-cleavage
A14G G30A C37U	0.05
A4G A6U C8G A16U	0.02
U20A G27A C31U	0.45
G2U A14U G30U U32A	0
C10G A16U G21U G30U C37U C46A	0
C10U G19U A26G G33U G36C	0.01
C3A A12G C15U G21U A24U G40U	0.05
C18U G27U G35U C46U	0.04
G1A G5C G17U G33C	0.06
A24G A25C G40A	0.03
C13U C15U G40C	0.02
C3G A4U A39G	0.04
C23A G35C A41C	0.06
U20C G33C C42G	0.05
C8G A26U U32C	0.04
G5C G27C C42A	0.29
A4G C8G C42A	0.01
C10G G17A C45U	0
U9A A12C G17A G19U A26U U28A	0.01
A4C C10A C18U G33A A39U	0
A14C A26G U43C	0.07
A24C U32C A39C	0.05
A16U A26C C37G G40A	0
C10A A11C G27C U32G	0.02

Variant	self-cleavage
G7A C8A U20A C45G	0.19
G17A C23A U38G C42G	0.02
C10G A12U C42U	0.02
C8A G36U U38C	0.25
C3A G7A U34A	0.21
C10U A14G C23U G27U	0.06
A11G G17U C18A U20G G22C	0.03
U20A U32G U34C A39G	0.08
A11G C13G C18A G29U	0.01
G2U A4C C31G U43A	0.03
G19U A41C C46U	0.01
C8G C15A A26U G27A U28G G33C	0.03
A24G U28A G29U G36A	0.05
A6U U9G A11U	0.04
U20A G30U A39G G40C	0.1
A11U U38G C46G	0.02
G2A G5U G7U C13G C31G	0.17
G1U G2A C10U G22A	0.12
C3G A6U A16U G27U U38G C42U	0.01
G2A G30A U34A	0.17
G1C U20A C42U	0.04
G2C U9C A16C G19U	0.03
A11G A12C C23G G27U G33C	0
G2A G29C U34C U38G G40U	0.14

Variant	self-cleavage
A26U G30C C31U	0.26
A6U U28C G33A U43C	0.1
G22U G29C C42U	0.08
A12U U20C C23U A24U G29C C31A G33U	0.02
C10A A16G C45U	0.02
C8G C10G C13G C18G U28C	0
C3A U20A A26C U32G A39C G40A	0.04
G2C C13A A16C C37U	0.01
C3A C18U A26G	0.44
A4C G7U A12U G30A C31A U38A	1.91
A4U C8U C10G C23A A24U A39G	0.02
G2C G21U C23U U34C	0.08
C15A G27U U28C C42G	0.03
C18G G19A G36U	0.11
G5C U9A C10U U20A G36A	0.05
A6U C42U U43A	0.04
A4G A14G U28G A39G	0.03
A4C A16U U20G G29A	0.05
C3G A11G G17A C46A	0.03
G1U G2A C13A C23G G44C	0.09
C13A C18A G22U C23U A25G	0.01
A11C C45A C46U	0.02
C10A A25C A26C G30U C31A	0.06
A6C G22U C23A G44C	0.06

Variant	self-cleavage
C3A C13A U28C G33C	0.09
A4C A6U C8U C13G G19A G33U	0.17
C3G U28G A41C C42A	0.06
G2C C13U U20G A26U G27C	0.27
A16U G17U C18U A41C	0.03
G1U A14G G22U U38G C46A	0
C3U A6U A25G	0.53
A6U G27A U28G A39G	0.06
G1A G17A C18A	0.06
C10A G19C C23U C45A	0
G2A A11C A12G A41C	0
G7C C10A G21C C37U C45U	0.01
A4G A6U U9C C31U	0.03
C10G A12C G30U C46U	0.01
G7U G33U A39C	0.13
C3G C10U A16C	0.03
A11C C13A U34A	0.01
U9G A25C U28C G29U	0.03
G2U U20G U38C	0.05
C3A G19A G35C	0.15
U9A A26G G40U G44U	0.23
C13G G19C A39C	0.09
G21A A24U G30U G36A	0.53
C3U U9G C15U G36C	0.07

Variant	self-cleavage
A12U G21U A25C	0.21
C23A U28C U38C	1.24
G2U C3U C13G A14C G19U U20C	0.08
G5A A6U G7C C10A G36U	0.12
U9A A25U C42A	0.4
A16U A26U G27A C31A	0.03
A6U U9C C18G G36C	0.05
G2U C13U A26G U32A C46A	0.03
G5U A6G G27C U34G G35A	0.03
C23A G29U C31U	0.43
C8U A12U G21U	0.35
G2C G17C C23A C37A C42U	0.35
C3U U34C C42U	0.34
A14G G29C C31U A41G	0
G22C A26G G29C G44A C45U	0.03
C15U G19U U28C A41C	0.08
C3U U20C G21C	0.3
G7A U9G C13A G19A C37A U38C U43A C45A	0.1
G2U A4G C23A	0.06
G2A A14U C15A G19U G44A	0.12
A6U C23A A26G	0.47
A16C G17C C18U U20A C23U U28A G30C U32G G35U	0.01
G19A C31U G33A	0.02
C18U A25G U28C	0.1

Variant	self-cleavage
U9C A11U C46U	0
C8G G29C U32C U38A	0.07
C8A G19A G21U	0.15
C8A A11U U38A	0.01
C13U C31U G36U	0.01
C31A A39G C42G	0.06
U9A A12C G29A	0
C8G U20C C31G	0.01
C10A G30U U43A G44C	0.03
A24U G44A C46A	0.06
A6C C15A A26U	0.03
C8U U9C C15G A24U U38G A41G	0.03
A6U U28G C31A	0.09
A14U G21U G27A U38A C42A	0.06
G7A C23A C37A G40U C42U	0.21
G1A G36C C37A	0.04
G5C C23U G40A	0.03
C15U C18U A26U	0.17
G2U C3G A26U G35C C42G	0.03
G17A C31U A39C	0.04
A11G G17C A41G	0.03
G1A A14C C37A U43C G44A	0.21
G1C U32A G33U C45A	0.04
